Data on 83 variants can be found in the RNAGym collection of RNA variant scans (doi:10.1093/nar/gkz1192).

B1: CPEB3 Ribozyme (parent)
chain: UAACAGGGGGCCACAGCAGAAGCGUUCACGUCGCAGCCCCUGUCAGAUUCUGGUGAAUCUGCGAAUUCUGCUGUAUAUCUC

The source gives no read counts; variants with many changes may rest on few reads.

Variants of B1 are the subject of this data set. In words: self-cleavage, relative activity (ratio to wild type); higher = more cleavage; in vitro, sequencing. Put shortly: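 Relative activity was defined as the cleaved/total read fraction for a variant divided by the same fraction for the unmutated ribozyme. CPEB3 self-cleaving ribozyme libraries were made by rounds of error-prone PCR, barcoded, and transcribed in vitro with T7 RNA polymerase for 5 hours at 37°C, and cleavage ran through transcription plus a 15 min DNase I step before EDTA. Illumina sequencing of template-switched reverse transcripts gave the reads, and DNA sequencing mapped the barcodes. Averages come from three batches, using variants with at least 5 reads.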
As for A5G G24U U41C U43C A45C, the self-cleavage turned out to be 0.3.

With A5G A56U U67C U72A, the self-cleavage came out at 0.14.

On to A5G G8A U43A U74A, for which the self-cleavage was 0.7.

Regarding A5G C39A U54C U60A U72A U80C, the self-cleavage was 0.29.

In the case of A5G C23G G46U U76A, the self-cleavage was 0.09.

A5G C29U G30C G52U A57G: the self-cleavage was 0.16.

A5G A56G C79U: the self-cleavage worked out at 0.29.

As for A5G A35G A56G C68A, the self-cleavage is 0.61.

For A5G U25C A45G U49A, the self-cleavage came out at 0.21.

As to A5G G9A A35U A64U U69C, the self-cleavage was 0.2.

With A5G C32A U69C, the self-cleavage was 0.12.

Consider A5G G6A G8A C14U A28U U54C, for which the self-cleavage came out at 0.05.

As to A5G C11U G19U U41A, the self-cleavage amounted to 0.08.

As for A5G U25C A35U A77G U78C, the self-cleavage was 0.01.

Take A5G C39A U54C A64G U76A: the self-cleavage worked out at 0.09.

Regarding A5G G6A G8A U51C A64U, the self-cleavage was found to be 0.06.

Consider A5G G9A U74C U80C, for which the self-cleavage was determined as 0.57.

Consider A5G A57U G63U U78C, for which the self-cleavage worked out at 0.5.

Turning to A5G C68A U72C, the self-cleavage stood at 0.16.

As to A5G C23U A35G U60C U69C, the self-cleavage amounted to 0.1.

As for A5G A28U A56G U60C U80C, the self-cleavage came to 0.1.

For the variant A5G G42U G53U A57G U72C, the self-cleavage amounted to 0.06.

On to A5G A45G U78C, for which the self-cleavage turned out to be 0.46.

As to A5G A56G A57U A77G, the self-cleavage came to 0.14.

In the case of A5G G10A U41A U72A U76C, the self-cleavage was determined as 0.13.

As for A5G G33C U54A, the self-cleavage turned out to be 0.3.

Take A5G C11U A20G: the self-cleavage was found to be 0.33.

As to A5G G9A C38U U72C A77G, the self-cleavage amounted to 0.66.

On to A5G G36A U58G, for which the self-cleavage came out at 0.19.

In the case of A5G A47U U48C U67A U78C, the self-cleavage amounted to 0.14.

Regarding A5G A35G A47G U60A U80C, the self-cleavage turned out to be 0.68.

In the case of A5G A35U A56G U66C, the self-cleavage amounted to 0.18.

Turning to A5G G7A A28C A65G U69A U72C, the self-cleavage came to 0.16.

As for A5G G10U A20U G53A, the self-cleavage is 0.36.

A5G C29U U51C A64G: the self-cleavage was found to be 0.19.

Take A5G C23U U41C U48C U54C: the self-cleavage came to 0.09.

In the case of A5G A35G U80C, the self-cleavage is 1.19.

With A5G G7U U72C, the self-cleavage was found to be 0.5.

A5G G33A U49A A64U: the self-cleavage turned out to be 0.24.

As to A5G G19U U25C U69A, the self-cleavage was 0.35.

As to A5G G52A U54A, the self-cleavage stood at 0.54.

In the case of A5G A64G U74C, the self-cleavage came to 0.91.

Regarding A5G G33C A64G U80C, the self-cleavage was 0.25.

Take A5G A45U U78C: the self-cleavage came out at 0.41.

On to A5G G9A A15G G55U, for which the self-cleavage stood at 0.16.

As for A5G C11U U43C A64U U80C, the self-cleavage is 0.28.

For the variant A5G C62A U69A U72A, the self-cleavage is 0.12.

For the variant A5G A35G C71U, the self-cleavage is 0.78.

As for A5G C11A C27A C34G U72C U80A, the self-cleavage is 0.32.

With A5G G24A A28G A45C U49C A64G, the self-cleavage turned out to be 0.39.

Regarding A5G U25C A35U U51C U67C U80A, the self-cleavage was determined as 0.21.

On to A5G A28U U41C U60A, for which the self-cleavage worked out at 0.17.

For the variant A5G G7A U25A U54C U80C, the self-cleavage was determined as 0.06.

As to A5G C11U U43C, the self-cleavage worked out at 0.36.

For A5G G10C U67A, the self-cleavage amounted to 0.51.

As to A5G C23G U25C U51G U54A, the self-cleavage was found to be 0.08.

For A5G A47G U80C, the self-cleavage was 0.81.

Consider A5G G24A A35U A56G U80C, for which the self-cleavage is 0.1.

Consider A5G C23U A35G U60C U67C, for which the self-cleavage came out at 0.15.

In the case of A5G G8U C32U U58C U66C, the self-cleavage was determined as 0.08.

On to A5G G6C G9U U31C, for which the self-cleavage is 0.56.

In the case of A5G U25A U43G, the self-cleavage stood at 0.23.

With A5G G9A U26C, the self-cleavage worked out at 0.08.

With A5G A35U U49A U58A U60C C62U U80A, the self-cleavage turned out to be 0.05.

As to A5G G30A U54G A57G A77G, the self-cleavage came out at 0.19.

For the variant A5G C11G U43A U48A U72C U74C, the self-cleavage is 0.28.

For A5G A57G U66C, the self-cleavage came out at 0.35.

For the variant A5G G22U U26A, the self-cleavage is 0.37.

In the case of A5G G6C A15U U25C G61A U74C, the self-cleavage was 0.45.

For the variant A5G C29U U41A A64U U72G, the self-cleavage stood at 0.21.

As for A5G A65G U80A, the self-cleavage is 0.43.

On to A5G U25C A28U U66C A75C, for which the self-cleavage came out at 0.13.

Consider A5G A35U A45U, for which the self-cleavage amounted to 0.24.

Take A5G A28U U48C U51C U72A: the self-cleavage was determined as 0.37.

Regarding A5G C11U A18U G24A A45G U58C, the self-cleavage came out at 0.06.

With A5G C34A U43C A64G, the self-cleavage stood at 0.14.

For A5G G9U G63A, the self-cleavage was determined as 0.3.

For the variant A5G G7U A47G U60C, the self-cleavage turned out to be 0.22.

Consider A5G G9U A35U A47U U78C, for which the self-cleavage is 0.18.

With A5G A57G U58A C71U, the self-cleavage turned out to be 0.43.

Turning to A5G G19U U26C U41A A65G U74A, the self-cleavage was found to be 0.1.

As for A5G A65G C79A, the self-cleavage is 0.46.

A5G G19U U41A A64U G70C: the self-cleavage was found to be 0.16.
